In PubChem BioAssay AID651820 (National Center for Advancing Translational Sciences (NCATS), 2012):
Several values for one entry are separate records, joined by “and”; a condition that tells them apart may be missing. Equal values may be shown once. In all, about 340,000 compounds went through this assay and about 12,000 (3.5%) were called active. Inconclusive results, whose numbers are uncertain, are shown with a selection of clear calls. The call rests on the fitted dose curve; in most records, active means well fitted inhibition curve with a large enough effect; inconclusive means small, poorly fitted or top-dose-only effect, or another doubt; inactive means no such curve, though single readings can be large or run the other way. Potencies beside an inconclusive call are fits to weak or partial responses and may not hold up.

Experiment: qHTS Assay for Inhibitors of Hepatitis C Virus (HCV)
Settings: Huh7.5.1 HCVcc-Cre (HCVcc is cell-culture hepatitis C virus) infection, luciferase reporter, 44 h; series mostly up to 41.8 µM
Method in brief: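 Luciferase read-out (15 sec integration) after a 15 min room-temperature substrate step quantifies HCVcc-Cre infection. Cells, 1,000 per well, had compound added 4 h post-plating, then virus at ~0.5 moi, and were cultured 44 h.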
Potency means the concentration at half of the fitted maximal effect; tags describe the fitted curve by direction and shape.

Q: Which Potency does the source give for `Cc1ccc(C)c(OCC(O)CN2C(C)CCCC2C)c1` (stereo not drawn) here?
A: The Potency was active: 12.6 µM.

Q: Which Potency does the source give for `CN(C)c1ccc(S(=O)(=O)N(C)C)cc1NC(=O)Cc1cccc2ccccc12` here?
A: The Potency was inconclusive: 2.51 µM [inhibitor, full curve, poor fit].

Q: For `O=C1c2ccccc2C(=O)N1CCCCN(C(=O)c1cccc([N+](=O)[O-])c1)c1ccc(Cl)cc1`, which Potency is on record?
A: The Potency was inconclusive: 31.6 µM [inhibitor, single point].

Q: For `CC1CC(C)CN(C(=O)c2ccc3c(c2)N(Cc2ccccc2)CCS3)C1` (stereo not drawn), which Potency is on record?
A: Its Potency is inconclusive: 12.6 µM [inhibitor, single point].

Q: Which Potency does the source give for `CCN(CC)S(=O)(=O)c1ccc(C)c(NC(=O)CN2CCN(Cc3ccccc3)CC2)c1` here?
A: The Potency was “inactive”.

Q: Which Potency does the source give for `CC(=O)c1c(C)[nH]c(C(=O)OCC(=O)Nc2ccc(Cl)cc2[N+](=O)[O-])c1C` here?
A: Its Potency is inconclusive: 2 µM [inhibitor, full curve].

Q: For `COC(=O)c1sc(NC(=O)c2cccc([N+](=O)[O-])c2)c(C(N)=O)c1C`, which Potency is on record?
A: Its Potency is inconclusive: 11.2 µM [inhibitor, partial curve, poor fit].

Q: Which Potency does the source give for `CCOC(=O)c1cn(Cc2c(C)c(C)c(C)c(C)c2C)nn1` here?
A: Its Potency is inconclusive: 12.6 µM [inhibitor, partial curve, poor fit].

Q: With `Cc1cc2c3c(c1C)C1(C(=O)N3C(C)(C)CC2C)C(C#N)=C(N)OC2=C1C(=O)CC(C)(C)C2` (stereo not drawn) as the molecule, how does the Potency read?
A: The Potency was “inactive”.

Q: With `O=C(/C=C/c1ccco1)Nc1nc(-c2ccc(F)c(F)c2)cs1` as the molecule, how does the Potency read?
A: The Potency was active: 10 µM.

Q: Which Potency does the source give for `CCCCN=C(Nc1ccc(Cl)cc1)c1cccnc1` here?
A: Its Potency is “inactive”.

Q: Which Potency does the source give for `COc1ccc2cc3cc(C(=O)N4CCN(Cc5ccc6c(c5)OCO6)CC4)oc3nc2c1` here?
A: The Potency was inconclusive: 31.6 µM [inhibitor, single point].

Q: For `CCOC(=O)c1ccc(NS(=O)(=O)c2ccc(SC)cc2)cc1`, which Potency is on record?
A: Its Potency is inconclusive: 31.6 µM [inhibitor, single point].

Q: Which Potency does the source give for `CC(/C=N/NC(=O)c1cc(-c2cccnc2)nc2c1c(C)nn2-c1ccccc1)=C\c1ccccc1` here?
A: Its Potency is inconclusive: 3.98 µM [inhibitor, partial curve].

Q: For `OCCN(CC#CC(O)(c1ccccc1)c1ccccc1)CCO`, which Potency is on record?
A: Its Potency is “inactive”.

Q: With `COc1ccccc1-c1cn[nH]c1-c1ccc(O)cc1O` as the molecule, how does the Potency read?
A: Its Potency is inconclusive: 22.4 µM [inhibitor, single point].

Q: With `CC1(C)Oc2ccc3ccc(=O)oc3c2/C(=C/O)C1=O` as the molecule, how does the Potency read?
A: Its Potency is “inactive”.

Q: For `Cc1ccsc1C(=O)NC1CCCN(Cc2ccc(Cl)cc2)C1` (stereo not drawn), which Potency is on record?
A: Its Potency is inconclusive: 8.91 µM [inhibitor, partial curve].

Q: Which Potency does the source give for `COc1cc(C(=O)Nc2cccc(-n3cnnn3)c2)cc(Cl)c1OC` here?
A: The Potency was inconclusive: 1.26 µM [inhibitor, full curve].

Q: With `O=C(Nc1ccc2nn(-c3ccccc3)nc2c1)c1ccc(Br)o1` as the molecule, how does the Potency read?
A: Its Potency is inconclusive: 6.31 µM [inhibitor, partial curve, poor fit].

Q: Which Potency does the source give for `N#Cc1ccccc1S(=O)(=O)N1CCN(C(=O)c2cc(-c3ccccc3)nn2-c2ccccc2)CC1` here?
A: The Potency was active: 11.2 µM.

Q: For `COc1ccc(CCNC(=O)Cn2nnc(-c3ccc(N(C)C)cc3)n2)cc1OC`, which Potency is on record?
A: Its Potency is inconclusive: 6.31 µM [inhibitor, partial curve].

Q: With `COc1ccc(S(=O)(=O)n2nc(-c3ccc(Cl)cc3)cc2N)cc1` as the molecule, how does the Potency read?
A: Its Potency is inconclusive: 31.6 µM [inhibitor, single point].

Q: For `Cc1cc(SCC(=O)Nc2cccc(S(=O)(=O)N3CCOCC3)c2)nc2ccccc12`, which Potency is on record?
A: The Potency was active: 12.6 µM.

Q: Which Potency does the source give for `CS(=O)(=O)c1ccc(C(=O)OCC(=O)NCc2cccs2)cc1[N+](=O)[O-]` here?
A: Its Potency is inconclusive: 22.4 µM [inhibitor, single point].

Q: Which Potency does the source give for `COC(=O)c1cc(Cl)c(NS(=O)(=O)c2ccccc2)cc1OC` here?
A: The Potency was inconclusive: 10 µM [inhibitor, partial curve, poor fit].

Q: Which Potency does the source give for `Cn1c(CCNC(=O)c2cccs2)nnc1SCC(=O)N1CCN(c2ccccc2)CC1` here?
A: Its Potency is “inactive”.

Q: With `CCC(CC)NCc1ccc(OC)cc1OC` as the molecule, how does the Potency read?
A: Its Potency is “inactive”.

Q: With `C=C(C)COc1ccc(-c2nc(N)nc(C)c2Oc2ccccc2OC)c(O)c1` as the molecule, how does the Potency read?
A: The Potency was inconclusive: 31.6 µM [inhibitor, single point].

Q: For `Cc1ccc(CNC(=O)CSc2nc3c(sc4ccccc43)c(=O)n2CCCN2CCCC2)cc1`, which Potency is on record?
A: Its Potency is inconclusive: 2.24 µM [inhibitor, full curve].

Q: Which Potency does the source give for `C[C@H](NC(=O)c1ccccc1Cl)C(=O)OC(C(=O)Nc1cc(C(F)(F)F)ccc1Cl)c1ccccc1` (stereo partly drawn) here?
A: Its Potency is inconclusive: 11.2 µM [inhibitor, single point].

Q: Which Potency does the source give for `Cc1cccc(N2CCN(C(=O)c3ccc4[nH]c(C)c(C)c4c3)CC2)c1C` here?
A: Its Potency is inconclusive: 4.47 µM [inhibitor, full curve, poor fit].

Q: For `CC(C)Cn1cnc2c(c(-c3ccccc3)c(-c3ccccc3)n2Cc2ccco2)c1=N`, which Potency is on record?
A: Its Potency is active: 11.2 µM.

Q: Which Potency does the source give for `CCn1c(C(=O)N2CCC(C(=O)NCCCSC3CCCCC3)CC2)cc2sccc21` here?
A: The Potency was inconclusive: 22.4 µM [inhibitor, single point].

Q: For `CC(C)Cn1c(C23CC4CC(CC(C4)C2)C3)n[nH]c1=S`, which Potency is on record?
A: The Potency was “inactive”.

Q: For `CCN(C(=O)CN1CCN(c2ccc(O)cc2)CC1)c1c(N)n(Cc2ccccc2)c(=O)[nH]c1=O`, which Potency is on record?
A: The Potency was “inactive”.

Q: Which Potency does the source give for `COC(=O)c1sccc1NC(=O)c1csc(C)c1` here?
A: The Potency was inconclusive: 8.91 µM [inhibitor, partial curve, poor fit].

Q: With `COc1ccccc1OCCn1c(=O)n(C)c2ccccc21` as the molecule, how does the Potency read?
A: The Potency was “inactive”.

Q: For `O=C(CN1CCC(Cc2ccccc2)CC1)NC(=O)NCc1ccco1`, which Potency is on record?
A: Its Potency is inconclusive: 28.2 µM [inhibitor, single point].

Q: Which Potency does the source give for `CC1Cc2ccccc2N1C(=O)CSc1nnc2n1C(C)(C)Cc1ccccc1-2` (stereo not drawn) here?
A: Its Potency is inconclusive: 17.8 µM [inhibitor, partial curve] and inconclusive: 3.16 µM [inhibitor, single point].

Q: For `CCOC(=O)c1cccc(Nc2ncnc3ccc(C)cc23)c1`, which Potency is on record?
A: The Potency was active: 25.1 µM.

Q: Which Potency does the source give for `Cc1nc(C)c(-c2ccc(SCc3ccc([N+](=O)[O-])cc3)nn2)s1` here?
A: The Potency was active: 31.6 µM.

Q: With `Cc1ccc(Nc2nnc(SC3CCOC3=O)s2)cc1` (stereo not drawn) as the molecule, how does the Potency read?
A: Its Potency is inconclusive: 11.2 µM [inhibitor, partial curve].
